These results are taken from the supplement of paper PMC9588766.

Structures can show the parent of a compound that is named as a salt. Whole data set: some 1,900 compounds, median “cell viability of compound + 1 nM pemigatinib relative to pemigatinib-only (DMSO) wells” near 0.95, cut for the lowest 2% near 0.22. The list shows a part of the results.

For this experiment, the system named is PDC-DUC18828. In words: cell viability of compound + 1 nM pemigatinib relative to pemigatinib-only (DMSO) wells (fraction); PDC-DUC18828 is a patient-derived cholangiocarcinoma cell line; higher = less growth inhibition. The settings on record: first compound 1 µM; pemigatinib concentration 1 nM; 72 h. How it is done: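 Selleck Bioactive library screen in the patient-derived FGFR2 fusion-positive ICC cell line PDC-DUC18828 (500 cells/well). Each compound was tested at 1 uM with 1 nM pemigatinib, in triplicate, for 72 h. Viability was read by CellTiter-Glo and normalised to plate DMSO controls. Value is the paper's averaged normalised viability.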
On to `Cn1c(=O)cc(N2CCC[C@@H](N)C2)n(Cc2cc(F)ccc2C#N)c1=O` [Trelagliptin] + CCN1C(=O)N(c2c(F)c(OC)cc(OC)c2F)Cc2cnc3[nH]c(CN4CCOCC4)cc3c21 [pemigatinib], for which the cell viability worked out at 0.934. Next, `N#Cc1ccc(-c2c(-c3ncn[nH]3)sc(N3CCOCC3)c2C#N)c(F)c1` + CCN1C(=O)N(c2c(F)c(OC)cc(OC)c2F)Cc2cnc3[nH]c(CN4CCOCC4)cc3c21 [pemigatinib]: 0.589; `C=C1c2cccc(O)c2C(=O)C2=C(O)[C@]3(O)C(=O)C(C(N)=O)=C(O)[C@@H](N(C)C)[C@@H]3[C@@H](O)[C@H]12` [Methacycline HCl] + CCN1C(=O)N(c2c(F)c(OC)cc(OC)c2F)Cc2cnc3[nH]c(CN4CCOCC4)cc3c21 [pemigatinib]: 0.965; `Clc1cccc(-c2nnnn2Cc2cccnc2)c1Cl` + CCN1C(=O)N(c2c(F)c(OC)cc(OC)c2F)Cc2cnc3[nH]c(CN4CCOCC4)cc3c21 [pemigatinib]: 0.933.

For `COc1cccc(-c2ccc(NC(=O)C3=C(C(=O)O)CCC3)c(F)c2)c1` [Vidofludimus] + CCN1C(=O)N(c2c(F)c(OC)cc(OC)c2F)Cc2cnc3[nH]c(CN4CCOCC4)cc3c21 [pemigatinib], the cell viability came to 0.972. Next, `Cc1cc(=O)oc2cc(O)ccc12` [4-Methylumbelliferone (4-MU)] + CCN1C(=O)N(c2c(F)c(OC)cc(OC)c2F)Cc2cnc3[nH]c(CN4CCOCC4)cc3c21 [pemigatinib]: 0.979; `C/C=C1/[C@H](O[C@@H]2O[C@H](CO)[C@@H](O)[C@H](O)[C@H]2O)OC=C(C(=O)OC)[C@H]1CC(=O)OCCc1ccc(O)c(O)c1` [Oleuropein] + CCN1C(=O)N(c2c(F)c(OC)cc(OC)c2F)Cc2cnc3[nH]c(CN4CCOCC4)cc3c21 [pemigatinib]: 0.905; `CC(C)(C)Cn1c(N)nc2ccc(-c3[nH]c(C(C)(C)C)nc3-c3ccc(F)cc3)nc21` + CCN1C(=O)N(c2c(F)c(OC)cc(OC)c2F)Cc2cnc3[nH]c(CN4CCOCC4)cc3c21 [pemigatinib]: 0.859. For `CCCN[C@H]1CCc2nc(N)sc2C1` [Pramipexole] + CCN1C(=O)N(c2c(F)c(OC)cc(OC)c2F)Cc2cnc3[nH]c(CN4CCOCC4)cc3c21 [pemigatinib], the cell viability was 0.995.

For `O=C(NC1CCN(CCCCC2(C(=O)NCC(F)(F)F)c3ccccc3-c3ccccc32)CC1)c1ccccc1-c1ccc(C(F)(F)F)cc1` [Lomitapide Mesylate] + CCN1C(=O)N(c2c(F)c(OC)cc(OC)c2F)Cc2cnc3[nH]c(CN4CCOCC4)cc3c21 [pemigatinib], the cell viability was 0.881. Next, `COc1ccc(C(=O)CC2(O)C(=O)Nc3c(Cl)ccc(Cl)c32)cc1` (stereo not drawn) + CCN1C(=O)N(c2c(F)c(OC)cc(OC)c2F)Cc2cnc3[nH]c(CN4CCOCC4)cc3c21 [pemigatinib]: 0.74; `CCOC(=O)c1ccc(OC(=O)CCCCCNC(=N)N)cc1` [Gabexate Mesylate] + CCN1C(=O)N(c2c(F)c(OC)cc(OC)c2F)Cc2cnc3[nH]c(CN4CCOCC4)cc3c21 [pemigatinib]: 1.02. Turning to `Cc1c(-c2ccnn2C)cc(C(=O)NCc2ccc(S(C)(=O)=O)cn2)c(=O)n1-c1cccc(C(F)(F)F)c1` [Alvelestat (AZD9668)] + CCN1C(=O)N(c2c(F)c(OC)cc(OC)c2F)Cc2cnc3[nH]c(CN4CCOCC4)cc3c21 [pemigatinib], the cell viability was 0.965.

Consider `COc1cc(/C=C/C(=O)N2CCN(CC(=O)N3CCCC3)CC2)cc(OC)c1OC` [Cinepazide maleate] + CCN1C(=O)N(c2c(F)c(OC)cc(OC)c2F)Cc2cnc3[nH]c(CN4CCOCC4)cc3c21 [pemigatinib], for which the cell viability is 0.931. Turning to `O=C(Nc1ccc(OC(F)(F)F)cc1)c1sccc1NCc1ccnc2ccccc12` + CCN1C(=O)N(c2c(F)c(OC)cc(OC)c2F)Cc2cnc3[nH]c(CN4CCOCC4)cc3c21 [pemigatinib], the cell viability amounted to 0.964.

For `CC(=O)Nc1cccc2c1c(Sc1ccc(Cl)cc1)c(C)n2CC(=O)O` + CCN1C(=O)N(c2c(F)c(OC)cc(OC)c2F)Cc2cnc3[nH]c(CN4CCOCC4)cc3c21 [pemigatinib], the cell viability is 1.08. Next, `CCCNC(C)C(=O)Nc1ccccc1C` (stereo not drawn) [Prilocaine] + CCN1C(=O)N(c2c(F)c(OC)cc(OC)c2F)Cc2cnc3[nH]c(CN4CCOCC4)cc3c21 [pemigatinib]: 0.993; `Nc1ncn([C@@H]2O[C@H](CO)[C@@H](O)[C@H]2O)c(=O)n1` [Azacitidine] + CCN1C(=O)N(c2c(F)c(OC)cc(OC)c2F)Cc2cnc3[nH]c(CN4CCOCC4)cc3c21 [pemigatinib]: 0.9.

Regarding `CC(COc1ccccc1)N(CCCl)Cc1ccccc1` (stereo not drawn) [Phenoxybenzamine HCl] + CCN1C(=O)N(c2c(F)c(OC)cc(OC)c2F)Cc2cnc3[nH]c(CN4CCOCC4)cc3c21 [pemigatinib], the cell viability was found to be 0.951.

For `COC1=C(OC)C(=O)C(CCCCCCCCCCO)=C(C)C1=O` [Idebenone] + CCN1C(=O)N(c2c(F)c(OC)cc(OC)c2F)Cc2cnc3[nH]c(CN4CCOCC4)cc3c21 [pemigatinib], the cell viability came to 1.02. Next, `CCOC(=O)[C@H](CCc1ccccc1)N[C@H]1CCc2ccccc2N(CC(=O)O)C1=O` [Benazepril HCl] + CCN1C(=O)N(c2c(F)c(OC)cc(OC)c2F)Cc2cnc3[nH]c(CN4CCOCC4)cc3c21 [pemigatinib]: 1.07; `Cn1cc(-c2ccc(F)c(C(F)(F)F)c2)nc1C1CCN(c2ncnc3[nH]ncc23)CC1` + CCN1C(=O)N(c2c(F)c(OC)cc(OC)c2F)Cc2cnc3[nH]c(CN4CCOCC4)cc3c21 [pemigatinib]: 0.923. As to `O=C(Nc1c[nH]nc1-c1nc2ccc(CN3CCOCC3)cc2[nH]1)NC1CC1` + CCN1C(=O)N(c2c(F)c(OC)cc(OC)c2F)Cc2cnc3[nH]c(CN4CCOCC4)cc3c21 [pemigatinib], the cell viability amounted to 0.552. For the compound `O=C(Nc1cccc2c(=O)cc(-c3nnn[nH]3)oc12)c1ccc(OCCCCc2ccccc2)cc1` [Pranlukast] + CCN1C(=O)N(c2c(F)c(OC)cc(OC)c2F)Cc2cnc3[nH]c(CN4CCOCC4)cc3c21 [pemigatinib], the cell viability is 0.977. For `Cc1ccc(C(=O)Nc2ccc(CN3CCN(C)CC3)c(C(F)(F)F)c2)cc1C#Cc1cnc2cccnn12` + CCN1C(=O)N(c2c(F)c(OC)cc(OC)c2F)Cc2cnc3[nH]c(CN4CCOCC4)cc3c21 [pemigatinib], the cell viability worked out at 0.258. Next, `CC(C)(C)NC[C@H](O)COc1nsnc1N1CCOCC1` [Timolol Maleate] + CCN1C(=O)N(c2c(F)c(OC)cc(OC)c2F)Cc2cnc3[nH]c(CN4CCOCC4)cc3c21 [pemigatinib]: 0.997; `O=C(c1cccc(Cl)c1F)N1CCN(Cc2cccc(Nc3nccs3)n2)CC1` + CCN1C(=O)N(c2c(F)c(OC)cc(OC)c2F)Cc2cnc3[nH]c(CN4CCOCC4)cc3c21 [pemigatinib]: 0.324. For the compound `CC(C)[C@H]1C(=O)N[C@@H](CCCNC(=N)N)C(=O)NCC(=O)N[C@@H](CC(=O)O)C(=O)N[C@H](Cc2ccccc2)C(=O)N1C` [Cilengitide] + CCN1C(=O)N(c2c(F)c(OC)cc(OC)c2F)Cc2cnc3[nH]c(CN4CCOCC4)cc3c21 [pemigatinib], the cell viability was determined as 0.933. Next, `COc1cc(OC)c2c(=O)[nH]c(-c3cc(C)c(OCCO)c(C)c3)nc2c1` + CCN1C(=O)N(c2c(F)c(OC)cc(OC)c2F)Cc2cnc3[nH]c(CN4CCOCC4)cc3c21 [pemigatinib]: 1.06; `CN(C)Cc1c(C(=O)NCCOc2ccc(C(=O)NO)cc2)oc2ccccc12` + CCN1C(=O)N(c2c(F)c(OC)cc(OC)c2F)Cc2cnc3[nH]c(CN4CCOCC4)cc3c21 [pemigatinib]: 0.96. The result for `O=C1CN2Cc3c(ccc(Cl)c3Cl)N=C2N1` [Anagrelide HCl] + CCN1C(=O)N(c2c(F)c(OC)cc(OC)c2F)Cc2cnc3[nH]c(CN4CCOCC4)cc3c21 [pemigatinib] reads 0.852. `Nc1nc(Cl)nc2c1ncn2[C@@H]1O[C@H](CO)[C@@H](O)[C@@H]1F` [Clofarabine] + CCN1C(=O)N(c2c(F)c(OC)cc(OC)c2F)Cc2cnc3[nH]c(CN4CCOCC4)cc3c21 [pemigatinib]: the cell viability was determined as 0.236.

Consider `COc1ccc(-c2cc(=O)c3c(O)cc(O)cc3o2)cc1O` [Diosmetin] + CCN1C(=O)N(c2c(F)c(OC)cc(OC)c2F)Cc2cnc3[nH]c(CN4CCOCC4)cc3c21 [pemigatinib], for which the cell viability was determined as 1.01. Next, `CN1CC[C@H](c2c(O)cc(O)c3c(=O)cc(-c4ccccc4Cl)oc23)[C@H](O)C1` [Flavopiridol HCl] + CCN1C(=O)N(c2c(F)c(OC)cc(OC)c2F)Cc2cnc3[nH]c(CN4CCOCC4)cc3c21 [pemigatinib]: 0.262. The result for `CN1CC[C@H](c2c(O)cc(O)c3c(=O)cc(-c4ccccc4Cl)oc23)[C@H](O)C1` [Flavopiridol (Alvocidib)] + CCN1C(=O)N(c2c(F)c(OC)cc(OC)c2F)Cc2cnc3[nH]c(CN4CCOCC4)cc3c21 [pemigatinib] reads 0.222; that for `CC(C)CC(=O)Nc1n[nH]c2c1CN(C(=O)C1CCN(C)CC1)C2(C)C` + CCN1C(=O)N(c2c(F)c(OC)cc(OC)c2F)Cc2cnc3[nH]c(CN4CCOCC4)cc3c21 [pemigatinib], 0.874.

With `O=C(NCCS(=O)(=O)c1ccc(C(F)(F)F)cn1)c1ccc(Cl)cc1` + CCN1C(=O)N(c2c(F)c(OC)cc(OC)c2F)Cc2cnc3[nH]c(CN4CCOCC4)cc3c21 [pemigatinib], the cell viability was found to be 0.992.

`CC[C@H]1OC(=O)[C@H](C)[C@@H](O[C@H]2C[C@@](C)(OC)[C@@H](O)[C@H](C)O2)[C@H](C)[C@@H](O[C@@H]2O[C@H](C)C[C@H](N(C)C)[C@H]2O)[C@](C)(O)C[C@@H](C)/C(=N\OCOCCOC)[C@H](C)[C@@H](O)[C@]1(C)O` [Roxithromycin] + CCN1C(=O)N(c2c(F)c(OC)cc(OC)c2F)Cc2cnc3[nH]c(CN4CCOCC4)cc3c21 [pemigatinib]: the cell viability was 0.941.
